Measurements taken from the antibiotic and cytotoxicity screens of Wong et al. (2023).
The other results are listed elsewhere or left out.

How the values were obtained:
HSkMC = human skeletal muscle cells; test: cytotoxicity call (relative viability < 0.9); conditions: 10 µM
HepG2 = test: cytotoxicity call (relative viability < 0.9); conditions: 10 µM
S. aureus RN4220 = test: growth inhibition call (relative growth <= 0.2); conditions: 50 µM

Compound	cytotoxicity call (HSkMC)	cytotoxicity call (HepG2)	growth inhibition call (S. aureus RN4220)
C[C@@H]1CCCCO[C@H](CN(C)S(=O)(=O)c2ccccc2)[C@@H](C)CN([C@@H](C)CO)C(=O)c2cc(NC(=O)C3CCCCC3)ccc2O1	inactive	inactive	inactive
CC(C)CNC(=O)C[C@H]1NCCNC1=O	inactive	inactive	inactive
Cc1ncc(NC(=O)c2ccc(CN3CCN(C)CC3)c(C(F)(F)F)c2)cc1Nc1nccc(-c2cccnc2)n1	inactive	active	inactive
C[C@@H]1CCCCO[C@@H](CN(C)C(=O)Nc2ccccc2)[C@H](C)CN([C@@H](C)CO)C(=O)c2cc(NS(=O)(=O)c3ccccc3)ccc2O1	inactive	inactive	inactive
COc1ccc(CN(C)C[C@H]2OCCCC[C@H](C)Oc3ccc(NC(=O)Nc4ccc(OC)cc4)cc3C(=O)N([C@H](C)CO)C[C@@H]2C)cc1	inactive	active	inactive
CC(C)N1C(=O)[C@@]2(Cc3ccccc31)c1ccccc1C(=O)N(Cc1ccccc1Cl)[C@H]2c1ccc(CO)cc1	inactive	inactive	inactive
C[C@H]1CN([C@@H](C)CO)C(=O)c2cccc(NC(=O)Nc3ccccc3)c2O[C@@H]1CN(C)Cc1ccc(-c2ccccc2)cc1	inactive	inactive	inactive
C[C@H](CO)N1C[C@H](C)[C@H](CN(C)C(=O)Nc2ccc(C(F)(F)F)cc2)Oc2c(NC(=O)Nc3ccc(C(F)(F)F)cc3)cccc2C1=O	active	active	inactive
O=C(NCc1ccc2c(c1)OCO2)[C@@H]1[C@@H](CO)[C@@H]2Cn3c(cccc3=O)[C@H]1N2Cc1cncnc1	inactive	inactive	inactive
O=C(C[C@@H]1CC[C@H]2[C@@H](COC[C@@H](O)CN2S(=O)(=O)c2ccc(Cl)cc2)O1)N1CCc2ccccc2C1	inactive	inactive	inactive
Cc1ccc(N2NC(=O)/C(=N/O)C2=O)cc1C	inactive	inactive	inactive
OC[C@@H]1O[C@H](O)[C@H](O)[C@H](O[C@@H]2O[C@H](CO)[C@H](O)[C@H](O[C@@H]3O[C@H](CO)[C@@H](O)[C@H](O)[C@@H]3O)[C@H]2O)[C@H]1O	inactive	inactive	inactive
COc1ccc(NC(=O)Nc2ccc3c(c2)C(=O)N([C@@H](C)CO)C[C@H](C)[C@@H](CN(C)S(=O)(=O)c2cn(C)cn2)O3)cc1	inactive	inactive	inactive
C[C@H]1CN([C@@H](C)CO)C(=O)Cc2cc(NC(=O)Cc3cn(C)c4ccccc34)ccc2O[C@@H]1CN(C)C(=O)Nc1ccc(C(F)(F)F)cc1	inactive	inactive	inactive
COC(=O)c1c(C)c2c(c(C)c1OC)OC(=O)c1c(C)c(Cl)c(OC)c(Cl)c1O2	inactive	inactive	inactive
COCC(=O)N1C[C@H](C)[C@@H](OC)CN(C)C(=O)c2cc(NC(=O)c3ccc(OC)cc3)ccc2OC[C@@H]1C	inactive	inactive	inactive
CNC(=O)C[C@@H]1CC[C@H]2[C@@H](COc3ccc(NC(=O)c4ccc(C(F)(F)F)cc4)cc3C(=O)N2C)O1	inactive	inactive	inactive
CCN(CC)C(=S)SSC(=S)N(CC)CC	active	active	active
Cc1ccc(S(=O)(=O)N[C@H]2CC[C@H](CCNC(=O)CN3CCOCC3)O[C@H]2CO)cc1	inactive	inactive	inactive
C[C@@H]1CN([C@H](C)CO)C(=O)c2cccc(NS(=O)(=O)c3cn(C)cn3)c2O[C@@H]1CN(C)S(=O)(=O)c1cn(C)cn1	inactive	inactive	inactive
COc1ccc(S(=O)(=O)N(C)C[C@H]2Oc3c(NS(=O)(=O)c4ccccc4)cccc3C(=O)N([C@@H](C)CO)C[C@H]2C)cc1	inactive	inactive	inactive
Cc1ccc(S(=O)(=O)Nc2ccc3c(c2)C(=O)N([C@H](C)CO)C[C@@H](C)[C@H](CN(C)C(=O)NC(C)C)O3)cc1	inactive	inactive	inactive
Cc1noc(C)c1NC(=O)N(C)C[C@@H]1Oc2ccc(NC(=O)NC(C)C)cc2C(=O)N([C@@H](C)CO)C[C@@H]1C	inactive	inactive	inactive
Cc1ccc(S(=O)(=O)N(C)C[C@@H]2Oc3ccc(NC(=O)CCCN(C)C)cc3CC(=O)N([C@H](C)CO)C[C@@H]2C)cc1	inactive	inactive	inactive
C[C@@H]1CN([C@H](C)CO)C(=O)c2cc(NC(=O)Nc3ccc(F)cc3)ccc2O[C@@H](C)CCCCO[C@@H]1CN(C)Cc1ccc2c(c1)OCO2	inactive	inactive	inactive
C[C@H]1CN([C@@H](C)CO)C(=O)Cc2cc(NS(=O)(=O)c3ccc(Cl)cc3)ccc2O[C@H]1CN(C)S(C)(=O)=O	inactive	inactive	inactive
CC(=O)OC1CC2C(C)(C)C=CCC2(C)C2CCC3(C)C(c4ccoc4)OC(=O)C4OC43C12C (stereo unspecified)	inactive	inactive	inactive
